# Publication PMC4336329 (PLoS ONE, 2015)
# Among all 310,000 compounds or so, about 14,000 (4.5%) showed an effect of 50% or more. Effects have a minus sign here. The list shows a part of the results.
# Target: human ether-à-go-go-related gene (hERG) potassium channel (human, UniProt Q12809)
# Assay: primary screen, population patch clamp on CHO cells stably expressing hERG
# 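Further: peak tail current of the secondary pulse compared with the same well before compound.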
# Chain of human ether-à-go-go-related gene (hERG) potassium channel (Q12809 whole entry, looked up): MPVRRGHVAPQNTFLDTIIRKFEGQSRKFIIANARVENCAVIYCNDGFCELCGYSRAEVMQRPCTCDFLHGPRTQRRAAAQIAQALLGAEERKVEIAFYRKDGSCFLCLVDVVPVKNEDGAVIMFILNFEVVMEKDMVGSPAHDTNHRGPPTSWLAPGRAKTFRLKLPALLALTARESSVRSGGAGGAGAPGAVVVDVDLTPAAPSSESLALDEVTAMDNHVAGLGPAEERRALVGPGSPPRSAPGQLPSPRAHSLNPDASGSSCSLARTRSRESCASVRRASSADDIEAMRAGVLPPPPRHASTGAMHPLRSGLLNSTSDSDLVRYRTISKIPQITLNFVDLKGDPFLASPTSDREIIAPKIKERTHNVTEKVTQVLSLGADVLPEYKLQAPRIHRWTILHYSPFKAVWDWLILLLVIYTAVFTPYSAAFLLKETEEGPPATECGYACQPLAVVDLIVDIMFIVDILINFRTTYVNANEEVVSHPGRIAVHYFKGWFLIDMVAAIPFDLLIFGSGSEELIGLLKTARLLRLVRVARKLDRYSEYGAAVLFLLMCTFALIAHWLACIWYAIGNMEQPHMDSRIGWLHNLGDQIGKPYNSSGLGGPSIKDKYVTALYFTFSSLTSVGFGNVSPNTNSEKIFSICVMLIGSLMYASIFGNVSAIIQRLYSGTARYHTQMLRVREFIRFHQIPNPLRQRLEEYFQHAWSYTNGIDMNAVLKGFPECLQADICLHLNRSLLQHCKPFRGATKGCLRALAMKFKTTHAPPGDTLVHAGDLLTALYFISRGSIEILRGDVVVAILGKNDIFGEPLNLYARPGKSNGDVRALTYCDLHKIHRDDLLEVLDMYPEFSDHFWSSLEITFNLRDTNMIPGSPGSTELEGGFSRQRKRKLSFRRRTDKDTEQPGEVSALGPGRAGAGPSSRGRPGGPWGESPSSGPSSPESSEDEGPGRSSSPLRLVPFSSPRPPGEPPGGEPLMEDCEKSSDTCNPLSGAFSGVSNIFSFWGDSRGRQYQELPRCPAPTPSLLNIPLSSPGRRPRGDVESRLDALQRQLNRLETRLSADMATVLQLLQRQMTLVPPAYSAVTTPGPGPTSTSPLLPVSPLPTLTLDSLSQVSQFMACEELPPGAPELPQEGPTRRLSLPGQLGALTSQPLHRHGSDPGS
row,SMILES,"hERG current change (%, negative = inhibition) at 10uM"
1,CCS(=O)(=O)N1CCN(c2ccc(Cl)cc2[N+](=O)[O-])CC1,-48.3%
2,CCOc1ccc(-c2nc(CSc3nnc(N)s3)cs2)cc1OC,-2.02%
3,COc1ccc(C(=O)Cc2cnn(-c3ccccc3)c2)c(O)c1,11.5%
4,CCc1cc(C(=O)Cc2ccccn2)c(O)cc1O,14.4%
5,O=c1cc(C(F)(F)F)[nH]c2ccc(OC(F)(F)F)cc12,8.47%
6,COc1ccc(NS(=O)(=O)c2cc3c(cc2C)N(C)CCO3)cc1,-10.5%
7,CCN(CC(=O)Nc1ccccc1OC)C(=O)c1ccccc1Sc1ccccc1C#N,8.48%
8,COc1ccc(S(=O)(=O)Nc2cc3c4c(c2)CCC(=O)N4CCC3)cc1C,-27.2%
9,C/C(=N\NC(=O)CSCc1ccccc1Cl)c1cc(O)ccc1O,-17.7%
10,Nc1nn2c(C(F)(F)F)cc(=O)[nH]c2c1N=Nc1cccc(F)c1,6.07%
11,CCC(=O)c1ccc(OCC(=O)OCC(=O)NCC2CCCCC2)cc1,18.7%
12,Cc1cccc(C(=O)Nc2ccc(S(=O)(=O)N3CCOCC3)cc2C)c1,18.6%
13,Cn1c(=O)c(Oc2ccc(Cl)cc2)c(O)c2ccccc21,24.8%
14,Cc1cccc(OCC(=O)O/N=C(\N)Cc2ccc(Cl)cc2)c1,11%
15,CCOc1ccc(N(CC(=O)NCc2ccc(F)cc2)C(=O)CCC(=O)Nc2nccs2)cc1,9.88%
16,CN(C)c1ncnc2c1NC1=C(S2)C(=NCCCC(=O)O)CC(C)(C)C1,9.4%
17,COc1ccc(NC(=O)c2ccccc2-c2ccccc2)cc1,8.44%
18,O=C(Nc1ccc(Cl)cc1)Nc1cccc2nsnc12,-2.9%
19,O=C(CSc1ncccc1C(=O)O)NC1CCCCC1,32.2%
20,CCC(C(=O)NC1CCCC1)N(C(=O)Cn1nnc(-c2ccc(C)o2)n1)c1ccc(OC)c(OC)c1 (stereo not drawn),-3.19%
21,O=C(COC(=O)CNC(=O)C12CC3CC(CC(C3)C1)C2)Nc1ccccc1,-18.6%
22,COC(=O)c1sccc1NC(=O)Cc1ccc(OC)c(OC)c1,1.46%

row,SMILES,"hERG current change (%, negative = inhibition) at 10uM"
1,Nc1ncccc1C(=O)OCC(=O)N1CCN(S(=O)(=O)c2ccc(Cl)cc2)CC1,-16.6%
2,O=C(CN1C(=O)NC2(CCc3ccccc32)C1=O)c1ccc(Br)s1 (stereo not drawn),12.7%
3,CN1C(=O)c2ccc(NC(=O)c3cccc4ccccc34)cc2C1=O,19.9%
4,O=C(CC1Nc2cccc3cccc(c23)NC1=O)Nc1ccc(F)cc1 (stereo not drawn),-17%
5,O=C(/C=C/c1ccccc1Cl)OCC(=O)c1ccc[nH]1,7.85%
6,CCOc1ccc(C2/C(=C(/O)c3ccc(OC)cc3)C(=O)C(=O)N2c2cc(C)on2)cc1OC (stereo not drawn),3.64%
7,Cc1ccc(CNC(=O)C2CCN(c3nn4c(=O)cc(C)nc4s3)CC2)cc1,-41.9%
8,O=C(/C=C/c1ccc(Br)cc1)c1ccc(NC2=NCCCS2)cc1,-1.51%
9,O=C(/C=C/c1ccccc1)N1CCN(c2cccc(Cl)n2)CC1,-0.15%
10,COc1ccc(C2=NCCn3nc4cc(OC)ccc4c32)cc1,-5.29%
11,O=C1CCCC(=O)N1c1ccc(O)cc1,2.73%
12,CNC(=O)NC(=O)CSc1cccc(C(F)(F)F)c1,2.56%
13,CC(=O)Nc1ccc(N(C(=O)CNC(=O)c2cccs2)C(C(=O)NCC2CCCO2)c2ccccc2)cc1 (stereo not drawn),13.2%
14,COC(=O)c1ccc(NCN2C(=O)C3C4CCC(C4)C3C2=O)cc1 (stereo not drawn),-12%
15,CCCCn1c(SCC(=O)N2CCCc3ccccc32)nc2c1c(=O)n(C)c(=O)n2C,-47.6%
16,O=C1c2cccnc2C(=O)N1CO,9.77%
17,COc1ccc(/C=C/c2nnc(NC(=O)c3ccco3)s2)cc1,8.89%
18,O=C(COC(=O)CCCOc1ccc(Cl)cc1Cl)NCc1ccccc1,4.2%
19,NC(=S)N/N=C/c1ccc(C23CC4CC(CC(C4)C2)C3)cc1,23.2%
20,Cc1ccc(N(C)C(=O)C2CCN(S(=O)(=O)c3ccc4c(c3)oc(=O)n4C)CC2)cc1,1.6%
21,CC(C)C(=O)NC(=S)Nc1ccc(S(=O)(=O)N(C)C)cc1,-8.89%
22,N#CCSC1=Nc2ccccc2C2=NC(CCC(=O)N3CCN(c4ccccc4)CC3)C(=O)N12 (stereo not drawn),-30.4%

row,SMILES,"hERG current change (%, negative = inhibition) at 10uM"
1,CCNC(=S)NNC(=O)CCn1cc(C)cn1,20.7%
2,CC(C)N(Cc1ccccc1)C(=S)NCCN1CCOCC1,14.9%
3,Cc1cc(C)c2c(C)c(C(=O)NCc3ccncc3)oc2c1,-7.22%
4,O=C(O)CCc1ccc(-c2cccs2)n1CC1CCCO1 (stereo not drawn),-4.68%
5,O=C(Cc1ccc(Br)cc1)N1CCN(c2ccccn2)CC1,-24.2%
6,COC(=O)CC1=C(C(=O)OC)C(c2ccncc2)C(C#N)=C(N)O1 (stereo not drawn),1.19%
7,CC1=C(C(=O)Nc2ccccc2)C(c2ccco2)C(C#N)=C(SCc2ccccc2)N1 (stereo not drawn),10.9%
8,O=C(NCCNC(=O)c1ccco1)c1ccc(Cl)c(Cl)c1,-10.5%
9,COc1ccc(/C=N/NC(=O)c2ccn[nH]2)cc1Cn1nc(C)c([N+](=O)[O-])c1C,13.8%
10,Cc1c(C(=O)Nc2cccc(C(F)(F)F)c2)oc2ccc(S(=O)(=O)N3CCOCC3)cc12,-0.856%
11,Cc1ccccc1OCC(=O)OCC(=O)Nc1ccc(N2CCOCC2)cc1,9.51%
12,C/C(=N\NC(=S)Nc1ccc(C)cc1)c1cccc(N)c1,-24.7%
13,O=C(O)Cc1coc(-c2ccc(F)cc2)n1,-0.918%
14,CN(C)CCNC(C(=O)Nc1cccc(S(=O)(=O)N2CCOCC2)c1)c1ccccc1 (stereo not drawn),-70.3%
15,Cn1c(Cn2cnc([N+](=O)[O-])n2)nnc1SCC(=O)Nc1ccccc1,1.69%
16,CCN1CCN(Cc2ccc(NC(=O)c3ccc(C)c(/C=C/c4cnc(Nc5cc(N6CCNCC6)nc(C)n5)cn4)c3)cc2C(F)(F)F)CC1.O=C(O)C(F)(F)F,-7.18%
17,Fc1ccc(C2=Nn3c(Cc4ccccc4)nnc3SC2)cc1,-21.7%
18,COc1ccc(-c2cc3ccccc3n2CC(O)CN2CCN(CCO)CC2)cc1 (stereo not drawn),-29.9%
19,Cc1nn(C(=O)c2cccs2)c(N)c1-c1ccccc1,3.51%
20,CC1CCCCN1C(=O)CSc1nnc(-c2ccco2)n1CC1CCCO1 (stereo not drawn),3.72%
21,C/C(=C\C(=O)OCC(=O)NCc1ccccc1)C(=O)OCC(=O)NCc1ccccc1,18.8%
22,CCN1CCC[C@H]1CNC(=O)c1c(O)c(Cl)cc(Cl)c1OC,-10.4%

row,SMILES,"hERG current change (%, negative = inhibition) at 10uM"
1,O=C1CCN(C(=O)C(Cl)Cl)N1,10.6%
2,O=C(NC1CCCCC1)c1cccc(S(=O)(=O)N2CCOCC2)c1,-4.59%
3,COc1ccc(/C=C(\NC(=O)c2ccc(C)cc2)C(=O)Nc2c(C)n(C)n(-c3ccccc3)c2=O)cc1,-17.3%
4,CCN(CC)C(=O)COc1coc(CN2CCN(Cc3ccccc3)CC2)cc1=O,-12%
5,Cc1ccc(NC(=O)c2cc(-c3ccc(C)c(C)c3O)n[nH]2)cc1C,24.4%
6,COCCCn1c(=O)c2sccc2n(Cc2cccc(C)c2)c1=O,-6.4%
7,CCOc1ccccc1NC(=O)NCc1cccnc1,10.8%
8,CCCC(=O)N1CCc2[nH]c3ccccc3c2C1,1.29%
9,O=C(Cn1cnc2ccccc2c1=O)NCCC(=O)N1CCN(c2ccccc2)CC1,-7.6%
10,COc1cc(CN(C(=O)c2cccs2)C2CCS(=O)(=O)C2)cc(OC)c1OC (stereo not drawn),7.79%
11,c1ccc(-c2ccc(CN3C[C@@H]4C(c5ccccc5)C5(c6cccnc6)CC4(C5)[C@H]3c3ccccc3)cc2)cc1 (stereo partly drawn),0.0971%
12,COc1ccccc1CNC(=O)C1COc2ccccc2O1 (stereo not drawn),-15.1%
13,COc1ccc(N2C(=O)NC(NC(=O)c3ccncc3)(C(F)(F)F)C2=O)cc1 (stereo not drawn),-12.5%
14,COc1ccc(/C=N\NC(=O)/C(=C\Nc2nccc(C)n2)NC(=O)c2ccccc2)cc1,-7.26%
15,Cc1ccc(C(=O)Oc2ccc(Cl)c3cccnc23)cc1[N+](=O)[O-],15.2%
16,CC1(C)CC(=O)C2=C(C1)NC(=O)NC2c1ccc(Cl)cc1 (stereo not drawn),17.3%
17,CCN(C(=O)COC(=O)/C=C/c1ccccc1[N+](=O)[O-])C1CCS(=O)(=O)C1 (stereo not drawn),2.47%
18,CC12CCC(=O)N1C(C(=O)NCc1ccccc1F)CS2 (stereo not drawn),6.23%
19,Cc1ccc(-n2cc(C(=O)c3ccc(F)cc3)nn2)cc1Cl,13%
20,CCc1cc2c(cc3c(=O)n(CC(=O)NCCCN4CCCCCC4)nc(CC)n32)s1,-72.7%
21,Cc1cc(C)c2c(N)c(C(=O)Nc3ncc(C)s3)sc2n1,0.941%
